SMILES strings stand for the structures. Some of the results follow.

The test system of one assay is HSkMC. The experiment in a line: cytotoxicity call (relative viability < 0.9). The conditions noted are these: 10 µM.
The next assay deals with HepG2. The experiment in a line: cytotoxicity call (relative viability < 0.9). Particulars: 10 µM.
A further assay relates to S. aureus RN4220. The assay can be described thus: growth inhibition call (relative growth <= 0.2). The conditions noted are these: 50 µM.

Consider `COc1ccc([Si](C)(C)[C@H]2[C@H](CC(=O)N3Cc4ccccc4C[C@H]3CO)O[C@@]3(C(=O)N(Cc4cccc(N5CCC5=O)c4)c4ccccc43)[C@@H]2C)cc1`, for which the cytotoxicity call with HSkMC and in the assay on HepG2 was “inactive” throughout. Further, in the assay with S. aureus RN4220, the growth inhibition call was “inactive”.

On to `C[C@@H]1CN([C@H](C)CO)C(=O)c2cc(NS(=O)(=O)c3ccccc3)ccc2O[C@@H](C)CCCCO[C@H]1CN(C)C(=O)Nc1ccccc1`, for which the cytotoxicity call in the assay with HSkMC and in the assay on HepG2 was “inactive” in each case. In the assay on S. aureus RN4220, the growth inhibition call is “inactive”.

In the case of `C[C@@H]1CN([C@@H](C)CO)C(=O)CCCn2nncc2CO[C@H]1CN(C)S(=O)(=O)c1ccc(C#N)cc1`, the cytotoxicity call in the assay with HSkMC and with HepG2 was “inactive” throughout. Further, the growth inhibition call with S. aureus RN4220 is “inactive”.

For `CC(=O)OC[C@H]1OC[C@H](OC(C)=O)[C@@H](OC(C)=O)[C@H]1OC(C)=O`, the cytotoxicity call in the assay on HSkMC and with HepG2 was “inactive” each time. Besides, in the assay with S. aureus RN4220, the growth inhibition call is “inactive”.

Take `COc1ccc(NC(=O)N(C)C[C@H]2OCCCC[C@@H](C)Oc3ccc(NS(=O)(=O)c4ccc(Cl)cc4)cc3C(=O)N([C@@H](C)CO)C[C@H]2C)cc1`: the cytotoxicity call in the assay with HSkMC and in the assay with HepG2 was “inactive” throughout. Moreover, the growth inhibition call in the assay on S. aureus RN4220 is “inactive”.

With `CC(C)(C)OC(=O)C[C@@H]1CC=CC[C@@H](CC(=O)N[C@@H](CO)Cc2ccccc2)C(=O)N[C@@H](C(C)(C)C)COC1=O`, the cytotoxicity call in the assay with HSkMC and in the assay on HepG2 was “inactive” throughout. In the assay with S. aureus RN4220, the growth inhibition call was “inactive”.

Take `C[C@H](CO)N1C[C@H](C)[C@@H](CN(C)S(=O)(=O)c2ccc(F)cc2)OCCCC[C@H](C)Oc2ccc(NS(=O)(=O)c3ccc(Cl)cc3)cc2C1=O`: the cytotoxicity call with HSkMC and with HepG2 was “inactive” throughout. Also, in the assay on S. aureus RN4220, the growth inhibition call was “inactive”.

Regarding `COc1ccc(S(=O)(=O)Nc2ccc3c(c2)C(=O)N([C@H](C)CO)C[C@H](C)[C@@H](CN(C)Cc2ccc(C(=O)O)cc2)OCCCC[C@@H](C)O3)cc1`, the cytotoxicity call in the assay with HSkMC and in the assay with HepG2 was “inactive” each time. Moreover, the growth inhibition call in the assay with S. aureus RN4220 is “inactive”.

With `Cc1noc(C)c1NC(=O)N(C)C[C@@H]1Oc2c(NC(=O)c3cnccn3)cccc2C(=O)N([C@H](C)CO)C[C@@H]1C`, the cytotoxicity call in the assay with HSkMC and in the assay with HepG2 was “inactive” in each case. In addition, the growth inhibition call in the assay with S. aureus RN4220 is “inactive”.

As for `C[C@H](CO)N1C[C@H](C)[C@@H](CN(C)Cc2ccccc2)OCCCC[C@H](C)Oc2ccc(NC(=O)c3ccncc3)cc2C1=O`, the cytotoxicity call with HSkMC and in the assay with HepG2 was “inactive” throughout. Also, the growth inhibition call in the assay on S. aureus RN4220 is “inactive”.

In the case of `C[C@@H]1CN([C@@H](C)CO)C(=O)c2cc(NC(=O)Nc3ccc(F)cc3)ccc2O[C@@H](C)CCCCO[C@H]1CN(C)S(=O)(=O)c1ccccc1`, the cytotoxicity call with HSkMC and in the assay on HepG2 was “inactive” each time. Moreover, the growth inhibition call with S. aureus RN4220 was “inactive”.

As for `CO[C@H]1[C@H](O)[C@@H](O)[C@@H](O)[C@H](O)[C@@H]1O`, the cytotoxicity call in the assay on HSkMC and in the assay on HepG2 was “inactive” in each case. In the assay on S. aureus RN4220, the growth inhibition call is “inactive”.

Take `CC(C)NC(=O)Nc1ccc2c(c1)CC(=O)N([C@H](C)CO)C[C@H](C)[C@H](CN(C)Cc1ccc(Oc3ccccc3)cc1)O2`: the cytotoxicity call with HSkMC and in the assay on HepG2 was “inactive” each time. The growth inhibition call in the assay with S. aureus RN4220 was “inactive”.

In the case of `CCOc1ccc2ccccc2c1C(=O)NC1C(=O)N2C1SC(C)(C)C2C(=O)[O-].[Na+]` (stereo not drawn), the cytotoxicity call in the assay on HSkMC and with HepG2 was “inactive” throughout. Also, the growth inhibition call with S. aureus RN4220 was “active”.

As to `Cc1noc(C)c1S(=O)(=O)Nc1ccc2c(c1)CC(=O)N([C@@H](C)CO)C[C@H](C)[C@H](CN(C)Cc1ccncc1)O2`, the cytotoxicity call in the assay with HSkMC and with HepG2 was “inactive” throughout. For the same molecule, the growth inhibition call with S. aureus RN4220 was “inactive”.

Take `C[C@@H]1CN([C@@H](C)CO)S(=O)(=O)c2ccc(C#CC3CC3)cc2O[C@@H]1CN(C)Cc1cccc(F)c1`: the cytotoxicity call in the assay on HSkMC and with HepG2 was “inactive” in each case. In addition, in the assay with S. aureus RN4220, the growth inhibition call is “inactive”.

Regarding `COc1cc(-c2coc3cc(O[C@@H]4O[C@H](CO)[C@@H](O)[C@H](O)[C@H]4O)c(OC)c(O)c3c2=O)cc(O)c1OC`, the cytotoxicity call with HSkMC and in the assay on HepG2 was “inactive” in each case. For the same molecule, the growth inhibition call in the assay with S. aureus RN4220 is “inactive”.

For `C[C@@H]1CN([C@H](C)CO)C(=O)c2cc(NC(=O)C3CCCCC3)ccc2O[C@@H](C)CCCCO[C@H]1CN(C)C(=O)Nc1ccc(C(F)(F)F)cc1`, the cytotoxicity call with HSkMC and in the assay with HepG2 was “inactive” in each case. Moreover, in the assay on S. aureus RN4220, the growth inhibition call is “inactive”.

Take `C[C@H]1CN([C@@H](C)CO)C(=O)CCCn2nncc2CO[C@@H]1CN(C)Cc1ccc(C(=O)Nc2ccccc2N)cc1`: the cytotoxicity call in the assay with HSkMC and with HepG2 was “inactive” each time. Also, in the assay with S. aureus RN4220, the growth inhibition call was “inactive”.

Consider `Cc1noc(C)c1NC(=O)Nc1ccc2c(c1)C(=O)N([C@@H](C)CO)C[C@@H](C)[C@H](CN(C)C(=O)C1CCCCC1)OCCCC[C@H](C)O2`, for which the cytotoxicity call in the assay with HSkMC and in the assay on HepG2 was “inactive” each time. Also, the growth inhibition call in the assay with S. aureus RN4220 is “inactive”.

As for `C[C@@H]1CCCCO[C@H](CN(C)Cc2ccc3c(c2)OCO3)[C@@H](C)CN([C@H](C)CO)C(=O)c2cc(NC(=O)Nc3ccc(F)cc3)ccc2O1`, the cytotoxicity call in the assay on HSkMC (human skeletal muscle cells) is “inactive”. In the assay on HepG2, the cytotoxicity call is “active”. Further, the growth inhibition call with S. aureus RN4220 is “inactive”.

`COc1cc(C=Cc2ccc(O)cc2)cc(OC)c1`: the cytotoxicity call in the assay with HSkMC was “inactive”. For the same molecule, the cytotoxicity call with HepG2 is “active”. Also, the growth inhibition call in the assay on S. aureus RN4220 is “active”.

Take `CN1C(=O)c2cc(NC(=O)c3ccc(F)c(F)c3)ccc2OC[C@@H]2O[C@@H](CC(=O)N3CCOCC3)CC[C@H]21`: the cytotoxicity call with HSkMC and with HepG2 was “inactive” throughout. Besides, in the assay on S. aureus RN4220, the growth inhibition call is “inactive”.

Take `Cc1noc(C)c1NC(=O)N(C)C[C@@H]1OCCCC[C@@H](C)Oc2ccc(NC(=O)NC3CCCCC3)cc2C(=O)N([C@H](C)CO)C[C@H]1C`: the cytotoxicity call with HSkMC and in the assay on HepG2 was “inactive” each time. In addition, the growth inhibition call with S. aureus RN4220 was “inactive”.

Take `CN(C)CC(=O)N[C@H]1CC[C@H](CC(=O)O)O[C@@H]1CO`: the cytotoxicity call with HSkMC and in the assay on HepG2 was “inactive” each time. Further, the growth inhibition call in the assay on S. aureus RN4220 was “inactive”.

Consider `C[C@H]1CCCCO[C@@H](CN(C)S(=O)(=O)c2cn(C)cn2)[C@@H](C)CN([C@@H](C)CO)C(=O)c2cc(NS(=O)(=O)c3cccs3)ccc2O1`, for which the cytotoxicity call with HSkMC and in the assay on HepG2 was “inactive” each time. Also, the growth inhibition call in the assay on S. aureus RN4220 is “inactive”.

Values taken from the antibiotic and cytotoxicity screens of Wong et al. (2023).
